pIC50: −log10 of the molar value. By IC50 is meant the dose at which the fit gives 50% viability; a limit (>, <) means that the fit lies beyond the doses tested. For AUC the same curve is integrated over the 256-fold range of doses and scaled to a fraction; the more sensitive the line, the further below 1. For some of these results: An inferred top dose comes from the curve model; the source does not state it.
What was measured:
Test in all cases: Viability of human cancer cell lines after 72 h of drug (GDSC screen)
[1] = compound: Oc1ccc2ccccc2c1SSc1c(O)ccc2ccccc12 [IPA-3]; conditions: top dose 32 µM; top dose inferred
Description: (§1)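 Human cancer cell lines in 384-well plates, medium with 10% serum, drug for 72 h over a 256-fold dose range (nine 2-fold or five 4-fold steps up to the top dose). Adherent lines were fixed and stained with the nucleic acid dye Syto60, suspension lines read with resazurin; signal relative to control wells, capped at 0 and 100%. One two-parameter sigmoid per drug and line, fitted in a mixed model over all curves with the slope shared within a line.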

[2] = compound: CN1CCc2c(c3ccccc3n2Cc2ccc(C(=O)NO)cc2)C1 [Tubastatin A]; conditions: top dose 20 µM
Description: as §1

[3] = compound: CN(C)C/C=C/C(=O)Nc1ccc(C(=O)Nc2cccc(Nc3nccc(-c4cccnc4)n3)c2)cc1 [ZG-10]; conditions: top dose 10 µM; top dose inferred
Description: as §1

[4] = compound: CCCC[C@@H](C=O)NC(=O)[C@H](CC(C)C)NC(=O)[C@H](CC(C)C)NC(=O)OCc1ccccc1 [Z-LLNle-CHO]; conditions: top dose 2.56 µM; top dose inferred
Description: as §1

[5] = compound: Cn1nnc2c(C(N)=O)ncn2c1=O [Temozolomide]; conditions: top dose 30 µM
Description: as §1

[6] = compound: CCC(=O)N1CCN(c2ccc(-n3c(=O)ccc4cnc5ccc(-c6cnc7ccccc7c6)cc5c43)cc2C(F)(F)F)CC1 [JW-7-52-1]; conditions: top dose 1.2 µM; top dose inferred
Description: as §1

[7] = compound: COc1cc2c(Oc3ccc(NC(=O)C4(C(=O)Nc5ccc(F)cc5)CC4)cc3F)ccnc2cc1OCCCN1CCOCC1 [XL-880]; conditions: top dose 5.12 µM; top dose inferred
Description: as §1

[8] = compound: O=C(NOCC1CC1)c1ccc(F)c(F)c1Nc1ccc(I)cc1Cl [CI-1040]; conditions: top dose 10 µM; top dose inferred
Description: as §1

Cell Line	AUC [1]	pIC50 [1]	AUC [2]	pIC50 [2]	AUC [3]	pIC50 [3]	AUC [4]	pIC50 [4]	AUC [5]	pIC50 [5]	AUC [6]	pIC50 [6]	AUC [7]	pIC50 [7]	AUC [8]	pIC50 [8]
EW-11 (Ewing sarcoma, adherent)	0.867	< 4.49	0.814	4.82	0.721	5.49	0.978	< 5.59	0.978	< 4.52	0.92	< 5.92	0.506	6.47	0.905	< 5.00
no-10 (glioma, adherent)	0.858	< 4.49	0.972	< 4.70	0.692	5.61	0.681	6.24	0.975	< 4.52	0.288	7.79	0.809	5.46	0.905	< 5.00
SCH (stomach, adherent)	0.986	< 4.49	0.988	< 4.70	–	–	0.936	< 5.59	0.94	< 4.52	0.59	6.87	0.807	5.54	0.978	< 5.00
BL-41 (Burkitt lymphoma, suspension)	0.584	5.49	0.787	5.18	0.5	6.21	0.662	6.40	0.993	< 4.52	0.157	8.01	0.378	6.79	0.914	5.08
NMC-G1 (glioma, adherent)	0.956	< 4.49	0.919	< 4.70	0.799	5.21	0.786	5.86	0.97	< 4.52	0.328	7.66	0.568	6.29	0.869	< 5.00
KGN (ovary, adherent)	0.707	5.05	0.909	< 4.70	0.723	5.51	0.763	5.95	0.978	< 4.52	0.211	8.07	0.357	6.93	0.843	5.03
IST-MEL1 (melanoma, adherent)	0.842	4.54	0.833	4.78	0.633	5.80	0.796	5.84	0.944	< 4.52	0.332	7.63	0.558	6.32	0.862	< 5.00
HUTU-80 (digestive system, adherent)	0.681	5.24	0.905	4.73	0.793	5.43	0.774	6.08	0.991	< 4.52	0.2	7.92	0.323	6.95	0.847	5.25
K-562 (chronic myeloid leukaemia, suspension)	0.96	< 4.49	–	–	0.687	5.69	0.858	5.70	–	–	0.56	6.96	–	–	–	–
RXF393 (kidney, adherent)	0.845	< 4.49	0.934	< 4.70	0.642	5.74	0.767	5.87	0.975	< 4.52	0.409	7.41	0.534	6.39	0.762	5.31
ES6 (Ewing sarcoma, adherent)	0.823	4.60	0.947	< 4.70	0.698	5.59	0.636	6.38	0.975	< 4.52	0.261	7.89	0.689	5.91	0.949	< 5.00
LS-411N (large intestine, adherent)	0.976	< 4.49	0.9	< 4.70	–	–	0.776	5.90	0.979	< 4.52	0.377	7.50	0.642	6.06	0.615	5.86
SU-DHL-8 (B-cell lymphoma, suspension)	0.539	5.60	0.693	5.38	0.826	5.26	0.679	6.31	0.978	< 4.52	0.434	7.30	0.504	6.48	–	–
WIL2-NS (lymphoid neoplasm, suspension)	0.569	5.53	0.868	4.89	0.753	5.55	0.794	6.03	0.925	< 4.52	0.421	7.32	0.641	6.14	0.982	< 5.00
SK-UT-1 (soft tissue, adherent)	0.899	< 4.49	0.988	< 4.70	–	–	0.775	6.03	0.974	< 4.52	0.319	7.61	0.841	5.51	0.866	5.12
SW982 (soft tissue, adherent)	0.733	5.02	0.983	< 4.70	0.611	5.90	0.743	6.09	0.983	< 4.52	0.303	7.69	0.594	6.23	0.734	5.53
BB65-RCC (kidney, adherent)	0.728	5.00	0.98	< 4.70	0.714	5.55	0.757	6.00	0.98	< 4.52	0.317	7.67	0.692	5.92	0.667	5.71
